# Results: PubChem BioAssay AID445 (National Center for Advancing Translational Sciences (NCATS), 2006)
# In all, about 110,000 compounds went through this assay and about 40 (0.04%) were called active. Inconclusive results, whose numbers are uncertain, are shown with a selection of clear calls. Calls follow the shape of the dose curve; as a rule, active = well fitted curve in the direction sought with a large enough effect in the signal ratio (not every such curve was filed as active); inconclusive = small, poorly fitted or top-dose-only effect, or a change in a side signal; inactive = flat fitted curve, though single readings scatter; the % refers to the signal ratio. Potencies beside an inconclusive call are fits to weak or partial responses and may not hold up.
# Test: IkB Signaling;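 as to IkBa stabilization activation: 0% = basal untreated cells and 100% = reference inhibitor full response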
# Details: ABC-DLBCL IkBa-CBG/CBR dual luciferase ratio (green luciferase fused to IkBa over red control in OCI-Ly3 lymphoma cells), 4 h; IkBa stabilization activation: at 57.1 µM (top of the series), scaled: untreated 0%, proteasome inhibitor 100% unless noted
# Method in brief: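 Luminescence ratio of IκBα-fused green versus native red beetle luciferase in OCI-Ly3 cells, 4 h post-doxycycline with compound; red signal alone, scaled from basal (0%) to zero light (-100%), flagged nonspecific or cytotoxic effects.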
# Potency is read from the fitted curve at half-maximal effect.
Compound,IkBa stabilization activation,Potency
O=C(CCCOc1ccc(Cl)cc1Cl)N1CCN(c2ccccn2)CC1,inactive,
Cc1nn(-c2ccc(F)cc2)c(-n2cccc2)c1C(=O)N1CCN(c2ccc(F)cc2)CC1,inconclusive: 1.03% [signal inhibitor],
Cc1ccc(N(CC(=O)N2CC(=O)Nc3ccccc32)S(=O)(=O)c2ccc3c(c2)OCCO3)cc1,inactive,
CC(=NC1CCCCC1)c1ccccc1O,"inactive: 2.11% [at 11.4 µM, scaled: untreated 0%, proteasome inhibitor 100%]",
Cc1ccc(C(=O)Nc2c(-c3ccccc3)nc3ccccn23)cc1C,inactive,
Cc1ccc(CNC(=O)Cn2c3ncccc3c(=O)n2-c2ccccc2)cc1,inconclusive: 2.27% [signal inhibitor],
O=C(CSc1ccc(-c2ccccn2)nn1)Nc1ccc(F)c(F)c1,inconclusive: 4.97% [signal inhibitor],
CCOc1ccc(CCNC(=O)CCc2c(C)nc3c(c(C)nn3-c3ccccc3)c2C)cc1OCC,inconclusive: 1.07% [signal inhibitor],
CC(C)(C)c1ccc(-c2cc(N)n[nH]2)cc1,inactive,
CSc1nc(N)c2ncn([C@H]3O[C@H](COP(=O)(O)OP(=O)(O)O)[C@@H](O)[C@@H]3O)c2n1,inactive,
Cc1[nH]c2ccc(-c3nnc(SCC(=O)NCc4ccco4)n3Cc3ccccc3)cc2c1C,inconclusive: -4.13% [signal inhibitor],
O=C(Nc1ccc(Br)c(Cl)c1)c1ccco1,inconclusive: 9.49% [signal inhibitor],
Cc1ccc(C2CC(=O)N(Cc3ccccc3F)c3c2c(C)nn3-c2nc(C)cc(C)n2)cc1 (stereo not drawn),inconclusive: -2.23% [signal inhibitor],
COc1ccc(C(c2nnnn2Cc2ccccc2)N2CCN(C(=O)c3ccco3)CC2)cc1 (stereo not drawn),inactive,
CCc1cccc2c1NC(=O)[C@]21[C@@H]2C(=O)N(Cc3ccccc3)C(=O)[C@@H]2[C@@H]2CCCN21,inconclusive: -0.0856% [signal inhibitor],
CCOc1ccc(CCNC(=O)c2ccc3c(c2)c(C)c(C)n3C)cc1,inconclusive: 2.64% [signal inhibitor],
COCCn1c(-c2cc(OC)c(OC)c(OC)c2)nc2nc3ccccc3nc21,inactive,
COC(=O)c1ccc(NC(=O)CSc2nc(=O)n(Cc3ccco3)c3c2CCC3)cc1,inconclusive: 3.34% [signal inhibitor],
O=C1c2[nH]nc(-c3ccccc3O)c2C(c2ccccc2F)N1Cc1ccco1 (stereo not drawn),inconclusive: -0.989% [signal inhibitor],
Cc1ccccc1C(=O)N1CCC(c2nc3ccccc3s2)CC1,inconclusive: 0.746% [signal inhibitor],
CSC(=NC1CCCCC1)NS(=O)(=O)c1ccccc1,inactive,
COC(=O)c1ccc(NC(=O)CCc2c(C)nn(-c3ccc(N4CCCC4)nn3)c2C)cc1,inactive,
COc1ccc(NC(=O)c2cc(-c3ccccc3OC)on2)cc1,,"inconclusive: 25.1 µM [rising, partial curve]"

Compound,IkBa stabilization activation,Potency
O=C(Nc1cccnc1)c1cc(-c2cccs2)on1,,"inconclusive: 3.98 µM [signal inhibitor, full curve]"
Cc1cccc(-c2nc(SCc3ccc(Br)cc3)n3[nH]c(=O)cc3n2)c1,inactive,
O=C1CC(N2CCN(c3ccccc3Cl)CC2)C(=O)N1c1ccccc1 (stereo not drawn),inactive,
CC(C)c1ccc(NS(=O)(=O)c2ccc3[nH]cc(C(=O)NC4CCCC4)c(=O)c3c2)cc1,inconclusive: -4.66% [signal inhibitor],
Cc1ccc(N2CC3=C(C2=O)C(c2ccc(Br)cc2)NC(=O)N3C)cc1 (stereo not drawn),inconclusive: 5.98% [signal inhibitor],
Cc1ccccc1CNC(=O)c1ccc(NC(=O)c2nsc3ccccc23)cc1,,"inconclusive: 3.98 µM [signal inhibitor, partial curve]"
CC(=O)N1CCN(c2ccc(NC(=O)c3ccccc3Br)cc2Cl)CC1,inconclusive: 0.725% [signal inhibitor],
O=C(Cn1c(=O)oc2cc(S(=O)(=O)N3CCCCCC3)ccc21)Nc1cccc(C(F)(F)F)c1,inconclusive: 1.54% [signal inhibitor],
CCn1c(=O)cc(SCC(=O)Nc2ccc(C)c(F)c2)c2ccccc21,inconclusive: 2.87% [signal inhibitor],
COc1cccc2sc(Nc3nc(-c4ccccn4)cs3)nc12,,"inconclusive: 1.58 µM [rising, partial curve]"
Cc1ccc(-c2nc(C(=O)NCc3ccc(Cl)cc3)c3n2CCCCC3)cc1,inconclusive: 0.334% [signal inhibitor],
Cc1nc2ccccc2c(=O)n1NC(=O)c1c(O)c2c(n(CC(C)C)c1=O)CCCC2,inconclusive: 3.72% [signal inhibitor],
CC(=O)C1=C(OC(=O)C(C)C)c2ccccc2S(=O)(=O)N1Cc1ccccc1,inconclusive: 6.48% [signal inhibitor],
Cc1c(NC(=O)c2ccc3c(c2)OCO3)cccc1-c1nc2ccccc2o1,inconclusive: 9.38% [signal inhibitor],
O=C(COC(=O)c1cnccn1)Nc1ccc(Cl)cc1,inconclusive: 11.6% [signal inhibitor],
O=C1c2ccccc2C(=O)N1CCc1nc2ccccc2c(=O)n1Cc1ccco1,inconclusive: -0.197% [signal inhibitor],
Nc1nc(SCC(=O)N2CCc3ccccc3C2)[nH]c(=O)c1-c1ccccc1,inactive,
CCN(C(=O)CSc1nc2ccccc2n1CC(=O)Nc1cccc(C#N)c1)c1ccccc1,inconclusive: 3.71% [signal inhibitor],
Cc1cc(NC(=O)CN2C(=O)C(C)(C)c3ccccc32)ccc1Br,inconclusive: 1.72% [signal inhibitor],
COc1ccc(C(CC(=O)Nc2ccc(F)c(Cl)c2)N2Cc3ccccc3C2=O)cc1OC (stereo not drawn),inconclusive: 0.646% [signal inhibitor],
Clc1ccccc1-c1nn2c(Cn3cnc4ccccc43)nnc2s1,inactive,
Cc1ccc(S(=O)(=O)Cc2ccc(C(=O)N3CCN(c4cccc(C)c4C)CC3)o2)cc1,inconclusive: 0.45% [signal inhibitor],
Cc1ccc(-c2csc3nnc(SCC(=O)Nc4cccc(C)n4)n23)cc1,inconclusive: 3.81% [signal inhibitor],

Compound,IkBa stabilization activation,Potency
COC(=O)C(C#N)c1nc2ccccc2nc1N1CCCC1 (stereo not drawn),inactive,
COc1ccc(C(=O)OCc2cc(=O)n3nc(-c4cccs4)sc3n2)cc1,inconclusive: 3.53% [signal inhibitor],
CCC(Cn1nnc2ccccc2c1=O)NC(=O)Nc1cccc(C)c1C (stereo not drawn),inconclusive: 3.46% [signal inhibitor],
CCOc1ccc2oc(-c3ccccc3)c(C(=O)O)c2c1,inconclusive: 18.4% [signal inhibitor],
Cc1ccc(NC(=O)C2CCCN(c3nnc(C)c4c(C)n(-c5ccccc5)nc34)C2)c(Cl)c1 (stereo not drawn),inconclusive: -3.06% [signal inhibitor],
CN(C)C(=O)c1ccc(-c2nc(Nc3ccc(F)cc3)c3ccccc3n2)cc1,"inactive: -6.9% [at 11.4 µM, scaled: untreated 0%, proteasome inhibitor 100%]",
CCC(=O)N1CCc2cc(Br)cc(S(=O)(=O)CCC(=O)N3CCN(c4cccc(C(F)(F)F)c4)CC3)c21,inconclusive: 0.319% [signal inhibitor],
c1ccc(C(c2nnnn2Cc2ccco2)N2CCN(C3CCCC3)CC2)cc1 (stereo not drawn),inconclusive: 2.07% [signal inhibitor],
CC(C)Cn1c(N)c(S(=O)(=O)c2cccs2)c2nc3ccccc3nc21,inconclusive: 5.44% [signal inhibitor],
Cc1nn(Cc2ccc(F)cc2)c(C)c1NC(=O)c1noc2c1CCCCC2,inconclusive: 2.91% [signal inhibitor],
Cc1ccccc1NC(=O)Cn1c(SCC(=O)Nc2ccc(F)cc2)nc2ccccc21,inconclusive: 16.7% [signal inhibitor],
Cc1c(-c2nc(-c3ccc4c(c3)OCO4)no2)nnn1-c1ccc(Br)cc1F,inactive,
Cc1ccc(CNC(=O)Cc2c(C)c3cc4c(C)coc4cc3oc2=O)cc1,inconclusive: 1.77% [signal inhibitor],
CCCOc1ccccc1C1CC(=O)Nc2cc3c(cc21)OCO3 (stereo not drawn),inconclusive: 17.8% [signal inhibitor],
CCn1c(SCC(=O)Nc2ccc(OCc3ccccc3)cc2)nnc1-c1ccco1,inconclusive: 1.72% [signal inhibitor],
O=S(=O)(O)c1ccc(N=Nc2ccccc2)cc1,"inactive: -1.83% [at 11.4 µM, scaled: untreated 0%, proteasome inhibitor 100%]",
Cn1c(=O)c2c(SCC(=O)NCC3CCCO3)nc(-c3cccs3)nc2n(C)c1=O (stereo not drawn),inactive,
Cc1cc(Nc2ccc(C)c(Cl)c2)n2nc(Cc3ccccc3)nc2n1,inconclusive: -0.366% [signal inhibitor],
Cc1cc(C)n2cc(CSc3nnnn3-c3ccccc3)nc2n1,,"inconclusive: 20 µM [signal inhibitor, partial curve]"
COCCn1c(=O)[nH]c2cc(C(=O)NCc3ccccc3Cl)ccc2c1=O,inconclusive: 0.559% [signal inhibitor],
COc1ccccc1-c1cc(C(F)(F)F)nc(S(=O)(=O)CCCC(=O)N2CCOCC2)n1,inconclusive: -1.65% [signal inhibitor],
CCOc1ccc(CCNC(=O)CCc2cn(Cc3ccccc3F)c3ccccc23)cc1OCC,inactive,
